# Measured values reported in the supplement of paper PMC10037445.
# “And” between values parts separate entries of the source, which are not always exact repeats. Equal entries are not always repeated. Over roughly 2,900 compounds, “IRF Lucia reporter activity, fold change vs agonist alone” has its median near 0.9; the highest 2% begin near 2.8. This is one part of the list.
# Legend:
# [1] = system: RAW-Dual; assay: IRF Lucia reporter activity, fold change vs agonist alone; cytotoxicity flag (confluency mask): not cytotoxic; higher = enhanced IRF activity
# How it was run: (§1)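 Reporter activity is given as fold change relative to agonist-alone wells. To measure it, 50 nL of library stock was pin-tooled onto RAW-Dual macrophages (50,000 cells/well, DMEM, 384-well plates), a PRR agonist followed 1 h later, and cells stayed at 37 °C, 5% CO2. Twenty hours on, supernatant was assayed for IRF (QuantiLuc luminescence) and NF-κB (QuantiBlue, 620 nm absorbance), and wells under 70% of agonist-control IncuCyte confluency in both mask sets were marked cytotoxic.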
# [2] = system: RAW-Dual; assay: IRF Lucia reporter activity, fold change vs agonist alone; higher = enhanced IRF activity; conditions: library stock concentration (final ~1000-fold dilution): 10 mM, agonist: MPLA (TLR4) […]
# How it was run: as §1
# [3] = system: RAW-Dual; assay: IRF Lucia reporter activity, fold change vs agonist alone; cytotoxicity flag (confluency mask): cytotoxic (confluency <70% of control); higher = enhanced IRF activity
# How it was run: as §1
# [4] = agonist: 3'3'-cGAMP (STING) 10 ug/mL
# [5] = cytotoxicity flag (confluency mask): not cytotoxic
# [6] = cytotoxicity flag (confluency mask): cytotoxic (confluency <70% of control)
structure (smiles),measurement,setting,value
COc1cc(C)[nH]c(=O)c1CNC(=O)c1c(C)n(C(C)C2CCOCC2)c2ccccc12 (stereo not drawn) (library stock concentration (final ~1000-fold dilution): 10 mM),IRF Lucia reporter activity,[1]; [4],1.17
same,IRF Lucia reporter activity,[1]; agonist: LPS (TLR4) 0.1 ug/mL,1.23
O=C(O)c1nn(Cc2ccc(Cl)cc2Cl)c2ccccc12 (library stock concentration (final ~1000-fold dilution): 10 mM),IRF Lucia reporter activity,[1]; [4],0.95
same,IRF Lucia reporter activity,[1]; agonist: LPS (TLR4) 0.1 ug/mL,1.07
O=C(O)c1nn(Cc2ccc(Cl)cc2Cl)c2ccccc12,IRF Lucia reporter activity,[2]; [5],1.03
Cc1cc(C(C#N)c2ccc(Cl)cc2)c(Cl)cc1NC(=O)c1cc(I)cc(I)c1O (stereo not drawn) (library stock concentration (final ~1000-fold dilution): 10 mM),IRF Lucia reporter activity,[1]; [4],0.797
same,IRF Lucia reporter activity,[1]; agonist: LPS (TLR4) 0.1 ug/mL,0.817
Cc1cc(C(C#N)c2ccc(Cl)cc2)c(Cl)cc1NC(=O)c1cc(I)cc(I)c1O (stereo not drawn),IRF Lucia reporter activity,[2]; [5],0.822
CC(C)(C)c1cc(C=C(C#N)C#N)cc(C(C)(C)C)c1O,IRF Lucia reporter activity,[2]; [6],2.06
CC(C)(C)c1cc(C=C(C#N)C#N)cc(C(C)(C)C)c1O (library stock concentration (final ~1000-fold dilution): 10 mM),IRF Lucia reporter activity,[3]; [4],0.0158
same,IRF Lucia reporter activity,[3]; agonist: LPS (TLR4) 0.1 ug/mL,2.17
O=C1C=C2C=CC3CC2(O1)C1CCCCN31 (stereo not drawn) (library stock concentration (final ~1000-fold dilution): 10 mM),IRF Lucia reporter activity,[1]; [4],0.438
same,IRF Lucia reporter activity,[1]; agonist: LPS (TLR4) 0.1 ug/mL,0.623
CC(=O)O.Cc1cc2c(C(C)C)c(O)c(O)c(C=O)c2c(O)c1-c1c(C)cc2c(C(C)C)c(O)c(O)c(C=O)c2c1O (library stock concentration (final ~1000-fold dilution): 10 mM),IRF Lucia reporter activity,[1]; [4],0.981
same,IRF Lucia reporter activity,[1]; agonist: LPS (TLR4) 0.1 ug/mL,1.28
CC(=O)O.Cc1cc2c(C(C)C)c(O)c(O)c(C=O)c2c(O)c1-c1c(C)cc2c(C(C)C)c(O)c(O)c(C=O)c2c1O,IRF Lucia reporter activity,[2]; [5],1.13
Cl.ClCCN(Cc1ccccc1)Cc1ccccc1 (library stock concentration (final ~1000-fold dilution): 10 mM),IRF Lucia reporter activity,[3]; [4],0.0495
same,IRF Lucia reporter activity,[3]; agonist: LPS (TLR4) 0.1 ug/mL,0.138
Cl.ClCCN(Cc1ccccc1)Cc1ccccc1,IRF Lucia reporter activity,[2]; [6],0.101
COc1ccc(C(CN(C)C)C2(O)CCCCC2)cc1.Cl (stereo not drawn) (library stock concentration (final ~1000-fold dilution): 10 mM),IRF Lucia reporter activity,[1]; [4],0.779
same,IRF Lucia reporter activity,[1]; agonist: LPS (TLR4) 0.1 ug/mL,0.837
COc1ccc(C(CN(C)C)C2(O)CCCCC2)cc1.Cl (stereo not drawn),IRF Lucia reporter activity,[2]; [5],0.528
O=c1ccc2cc3ccoc3c(O)c2o1 (library stock concentration (final ~1000-fold dilution): 10 mM),IRF Lucia reporter activity,[1]; [4],0.801 and 0.941
same,IRF Lucia reporter activity,[1]; agonist: LPS (TLR4) 0.1 ug/mL,0.906 and 0.766
Br.CN1C2CC(OC(=O)C(CO)c3ccccc3)CC1C1OC12 (stereo not drawn) (library stock concentration (final ~1000-fold dilution): 10 mM),IRF Lucia reporter activity,[1]; [4],1.01
same,IRF Lucia reporter activity,[1]; agonist: LPS (TLR4) 0.1 ug/mL,1.02
Br.CN1C2CC(OC(=O)C(CO)c3ccccc3)CC1C1OC12 (stereo not drawn),IRF Lucia reporter activity,[2]; [5],1.07
O=C([O-])C(Cl)Cl.[Na+] (library stock concentration (final ~1000-fold dilution): 10 mM),IRF Lucia reporter activity,[1]; [4],1.12 and 0.935
same,IRF Lucia reporter activity,[1]; agonist: LPS (TLR4) 0.1 ug/mL,1.12 and 1.18
CC(O)(CS(=O)(=O)c1ccc(F)cc1)C(=O)Nc1ccc(C#N)c(C(F)(F)F)c1 (stereo not drawn) (library stock concentration (final ~1000-fold dilution): 10 mM),IRF Lucia reporter activity,[1]; [4],1.11
same,IRF Lucia reporter activity,[1]; agonist: LPS (TLR4) 0.1 ug/mL,1.08
CC(O)(CS(=O)(=O)c1ccc(F)cc1)C(=O)Nc1ccc(C#N)c(C(F)(F)F)c1 (stereo not drawn),IRF Lucia reporter activity,[2]; [5],1.1
CC(Nc1ncnc2nc[nH]c12)c1nc2ccc(F)cc2c(=O)n1-c1ccccc1 (stereo not drawn) (library stock concentration (final ~1000-fold dilution): 10 mM),IRF Lucia reporter activity,[1]; [4],0.709
same,IRF Lucia reporter activity,[1]; agonist: LPS (TLR4) 0.1 ug/mL,1.31
CC(Nc1ncnc2nc[nH]c12)c1nc2ccc(F)cc2c(=O)n1-c1ccccc1 (stereo not drawn),IRF Lucia reporter activity,[2]; [5],1.27
CCN1CCN(C(=O)Cc2ccc(Nc3ncc(F)c(Nc4ccc(C(=O)Nc5ccccc5Cl)cc4)n3)cc2)CC1 (library stock concentration (final ~1000-fold dilution): 10 mM),IRF Lucia reporter activity,[3]; [4],0.0304
same,IRF Lucia reporter activity,[3]; agonist: LPS (TLR4) 0.1 ug/mL,0.113
CCN1CCN(C(=O)Cc2ccc(Nc3ncc(F)c(Nc4ccc(C(=O)Nc5ccccc5Cl)cc4)n3)cc2)CC1,IRF Lucia reporter activity,[2]; [6],0.0524
CNC(=O)Oc1cccc2ccccc12,IRF Lucia reporter activity,[2]; [5],0.925
CNC(=O)Oc1cccc2ccccc12 (library stock concentration (final ~1000-fold dilution): 10 mM),IRF Lucia reporter activity,[1]; [4],0.885
same,IRF Lucia reporter activity,[1]; agonist: LPS (TLR4) 0.1 ug/mL,0.983
O.O=C1C=CCC2C3CCCN4CCCC(CN12)C34 (stereo not drawn) (library stock concentration (final ~1000-fold dilution): 10 mM),IRF Lucia reporter activity,[1]; [4],0.769
same,IRF Lucia reporter activity,[1]; agonist: LPS (TLR4) 0.1 ug/mL,1.02
C=CC1C2=CCOC(=O)C2=COC1OC1OC(CO)C(O)C(O)C1O (stereo not drawn),IRF Lucia reporter activity,[2]; [5],1.17
C=CC1C2=CCOC(=O)C2=COC1OC1OC(CO)C(O)C(O)C1O (stereo not drawn) (library stock concentration (final ~1000-fold dilution): 10 mM),IRF Lucia reporter activity,[1]; [4],1.11
same,IRF Lucia reporter activity,[1]; agonist: LPS (TLR4) 0.1 ug/mL,1.25
CC(N)C(=O)NC(CO)C(=O)NC(C(=O)NC(C(=O)NC(C(=O)NC(CC(N)=O)C(=O)NC(Cc1ccc(O)cc1)C(=O)NC(C(N)=O)C(C)O)C(C)O)C(C)O)C(C)O (stereo not drawn) (library stock concentration (final ~1000-fold dilution): 10 mM water),IRF Lucia reporter activity,[1]; [4],1.26
same,IRF Lucia reporter activity,[1]; agonist: LPS (TLR4) 0.1 ug/mL,0.925
CCCCC(O)(Cn1cncn1)c1ccc(Cl)cc1Cl (stereo not drawn) (library stock concentration (final ~1000-fold dilution): 10 mM),IRF Lucia reporter activity,[3]; [4],1.23
same,IRF Lucia reporter activity,[3]; agonist: LPS (TLR4) 0.1 ug/mL,0.66
ClC(Cl)=C(c1ccc(Cl)cc1)c1ccc(Cl)cc1,IRF Lucia reporter activity,[2]; [5],1.84
ClC(Cl)=C(c1ccc(Cl)cc1)c1ccc(Cl)cc1 (library stock concentration (final ~1000-fold dilution): 10 mM),IRF Lucia reporter activity,[1]; [4],1.21
same,IRF Lucia reporter activity,[1]; agonist: LPS (TLR4) 0.1 ug/mL,2.54
COc1ccc(N(C(=O)Oc2c(C)cccc2C)c2ccnc(Nc3ccc(N4CCN(C)CC4)cc3)n2)c(OC)c1,IRF Lucia reporter activity,[2]; [5],1.01
COc1ccc(N(C(=O)Oc2c(C)cccc2C)c2ccnc(Nc3ccc(N4CCN(C)CC4)cc3)n2)c(OC)c1 (library stock concentration (final ~1000-fold dilution): 10 mM),IRF Lucia reporter activity,[1]; [4],0.582
same,IRF Lucia reporter activity,[1]; agonist: LPS (TLR4) 0.1 ug/mL,1.45
COC1=C[C@@H]2[C@@H]3Cc4ccc(OC)c(O)c4[C@]2(CCN3C)CC1=O (library stock concentration (final ~1000-fold dilution): 10 mM),IRF Lucia reporter activity,[1]; [4],0.9
same,IRF Lucia reporter activity,[1]; agonist: LPS (TLR4) 0.1 ug/mL,1.22
